# Assay results as given in the supplement of paper PMC8728848.
# This is one part of the list.
# B1: PX14375F-bfa-539-21-539 (Bacteroides fragilis) (protein)
# chain: EDFLQKDPPSSPSQSVFWQKKSDFESALAGTYSVMYSGVFSQIMPCLDGLTDNAIVQHSEGTYGWAKTIAQGDLTPNQGGFVTDIYGNCYKGIARVHILMEQLDQYTGSDISADEKKFMLAQCKALRGYFYSWLYQCYKEVPVVTQSLDLNTMYQPKATRAEVLNRVMTDYDEAISELPDKLYSDSQTSGRFTVSAVKALKARILLFDAYDSNGKAISSKMEEVLTLLQSIKGYSLAARVRDNFISEKQLASPEIMFSVRFLRPNLTHSMDLYYGAWAVLDPTRNMVDAFECTDGKPWGESPLTVRPDESILYGNDDALKKAERAKMFMNRDRRLYESVNHSMMANFVDDGFKDEEVQVNESNNKGPTGFSALKYVQPTDVTPGYSTVSDADIVVLRYAHVLLMIAEAENEAHGATTTALNAINEVRTRSGQPAIEAGISQDDLRERIRNEWRIETCFEGLRYFQLKRWKLMDKRVNGVEDPAYPGYIKVYKPAFEFFPIPQSEIDKAGGVLKQDPAYE
# What was measured:
# Assay in all cases: glycan array binding signal (z-score within array); higher = stronger binding
# Details in all cases: glycan notation: IUPAC condensed, linker removed
# [1] = molecular target: Gal(b1-4)GlcNAc(b1-3)Gal(b1-4)GlcNAc(b1-2)[Gal(b1-4)GlcNAc(b1-3)Gal(b1-4)GlcNAc(b1-6)]Man(a1-6)[Gal(b1-4)GlcNAc(b1-3)Gal(b1-4)GlcNAc(b1-2)Man(a1-3)]Man(b1-4)GlcNAc(b1-4)GlcNAc
# Procedure, shortened: (§1)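 Glycan array binding is given as a within-array Z-score, which can be read as non-binding when negative. The arrays, 3228 of them, came from the Consortium for Functional Glycomics database and were retained only where the protein sequence was available. Z-scores were averaged across arrays of the same protein sequence at different concentrations or buffers and across linkers.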
# [2] = molecular target: Gal(b1-4)GlcNAc(b1-3)Gal(b1-4)GlcNAc(b1-2)[Gal(b1-4)GlcNAc(b1-3)Gal(b1-4)GlcNAc(b1-6)]Man(a1-6)[Gal(b1-4)GlcNAc(b1-3)Gal(b1-4)GlcNAc(b1-2)Man(a1-3)]Man(b1-4)GlcNAc(b1-4)[Fuc(a1-6)]GlcNAc
# Procedure, shortened: as §1
# [3] = molecular target: Gal(b1-4)GlcNAc(b1-3)Gal(b1-4)GlcNAc(b1-3)Gal(b1-4)GlcNAc
# Procedure, shortened: as §1
# [4] = molecular target: Gal(b1-4)GlcNAc(b1-3)Gal(b1-4)GlcNAc(b1-3)Gal(b1-4)GlcNAc(b1-2)Man(a1-3)[Gal(b1-4)GlcNAc(b1-3)Gal(b1-4)GlcNAc(b1-3)Gal(b1-4)GlcNAc(b1-2)Man(a1-6)]Man(b1-4)GlcNAc(b1-4)GlcNAc
# Procedure, shortened: as §1
# [5] = molecular target: Gal(b1-4)GlcNAc(b1-3)Gal(b1-4)GlcNAc(b1-3)Gal(b1-4)GlcNAc(b1-2)Man(a1-3)[Gal(b1-4)GlcNAc(b1-3)Gal(b1-4)GlcNAc(b1-3)Gal(b1-4)GlcNAc(b1-2)Man(a1-6)]Man(b1-4)GlcNAc(b1-4)[Fuc(a1-6)]GlcNAc
# Procedure, shortened: as §1
# [6] = molecular target: Gal(b1-4)GlcNAc(b1-3)Gal(b1-4)GlcNAc(b1-3)Gal(b1-4)GlcNAc(b1-2)[Gal(b1-4)GlcNAc(b1-3)Gal(b1-4)GlcNAc(b1-3)Gal(b1-4)GlcNAc(b1-6)]Man(a1-6)[Gal(b1-4)GlcNAc(b1-3)Gal(b1-4)GlcNAc(b1-3)Gal(b1-4)GlcNAc(b1-2)Man(a1-3)]Man(b1-4)GlcNAc(b1-4)[Fuc(a1-6)]GlcNAc
# Procedure, shortened: as §1
# [7] = molecular target: Gal(b1-4)GlcNAc(b1-3)Gal(b1-4)GlcNAc(b1-3)Gal(b1-4)GlcNAc(b1-3)Gal(b1-4)GlcNAc(b1-2)Man(a1-3)[Gal(b1-4)GlcNAc(b1-3)Gal(b1-4)GlcNAc(b1-3)Gal(b1-4)GlcNAc(b1-3)Gal(b1-4)GlcNAc(b1-2)Man(a1-6)]Man(b1-4)GlcNAc(b1-4)GlcNAc
# Procedure, shortened: as §1
# [8] = molecular target: Gal(b1-4)GlcNAc(b1-3)Gal(b1-4)GlcNAc(b1-3)Gal(b1-4)GlcNAc(b1-3)Gal(b1-4)GlcNAc(b1-2)Man(a1-3)[Gal(b1-4)GlcNAc(b1-3)Gal(b1-4)GlcNAc(b1-3)Gal(b1-4)GlcNAc(b1-3)Gal(b1-4)GlcNAc(b1-2)Man(a1-6)]Man(b1-4)GlcNAc(b1-4)[Fuc(a1-6)]GlcNAc
# Procedure, shortened: as §1
# [9] = molecular target: Gal(b1-4)GlcNAc(b1-3)Gal(b1-4)GlcNAc(b1-3)Gal(b1-4)GlcNAc(b1-3)Gal(b1-4)GlcNAc(b1-2)[Gal(b1-4)GlcNAc(b1-3)Gal(b1-4)GlcNAc(b1-3)Gal(b1-4)GlcNAc(b1-3)Gal(b1-4)GlcNAc(b1-6)]Man(a1-6)[Gal(b1-4)GlcNAc(b1-3)Gal(b1-4)GlcNAc(b1-3)Gal(b1-4)GlcNAc(b1-3)Gal(b1-4)GlcNAc(b1-2)Man(a1-3)]Man(b1-4)GlcNAc(b1-4)[Fuc(a1-6)]GlcNAc
# Procedure, shortened: as §1
# [10] = molecular target: Gal(b1-4)GlcNAc(b1-3)Gal(b1-4)GlcNAc(b1-3)Gal(b1-4)GlcNAc(b1-3)Gal(b1-4)GlcNAc(b1-3)Gal(b1-4)GlcNAc(b1-2)Man(a1-3)[Gal(b1-4)GlcNAc(b1-3)Gal(b1-4)GlcNAc(b1-3)Gal(b1-4)GlcNAc(b1-3)Gal(b1-4)GlcNAc(b1-3)Gal(b1-4)GlcNAc(b1-2)Man(a1-6)]Man(b1-4)GlcNAc(b1-4)GlcNAc
# Procedure, shortened: as §1
# [11] = molecular target: Gal(b1-4)GlcNAc(b1-3)Gal(b1-4)GlcNAc(b1-3)Gal(b1-4)GlcNAc(b1-3)Gal(b1-4)GlcNAc(b1-3)Gal(b1-4)GlcNAc(b1-2)Man(a1-3)[Gal(b1-4)GlcNAc(b1-3)Gal(b1-4)GlcNAc(b1-3)Gal(b1-4)GlcNAc(b1-3)Gal(b1-4)GlcNAc(b1-3)Gal(b1-4)GlcNAc(b1-2)Man(a1-6)]Man(b1-4)GlcNAc(b1-4)[Fuc(a1-6)]GlcNAc
# Procedure, shortened: as §1
# [12] = molecular target: Gal(b1-4)GlcNAc(b1-3)Gal(b1-4)GlcNAc(b1-3)Gal(b1-4)GlcNAc(b1-3)Gal(b1-4)GlcNAc(b1-3)Gal(b1-4)GlcNAc(b1-2)[Gal(b1-4)GlcNAc(b1-3)Gal(b1-4)GlcNAc(b1-3)Gal(b1-4)GlcNAc(b1-3)Gal(b1-4)GlcNAc(b1-3)Gal(b1-4)GlcNAc(b1-6)]Man(a1-6)[Gal(b1-4)GlcNAc(b1-3)Gal(b1-4)GlcNAc(b1-3)Gal(b1-4)GlcNAc(b1-3)Gal(b1-4)GlcNAc(b1-3)Gal(b1-4)GlcNAc(b1-2)Man(a1-3)]Man(b1-4)GlcNAc(b1-4)[Fuc(a1-6)]GlcNAc
# Procedure, shortened: as §1
# [13] = molecular target: Gal(b1-4)GlcNAc(b1-3)Gal(b1-4)GlcNAc(b1-3)Gal(b1-4)GlcNAc(b1-3)Gal(b1-4)GlcNAc(b1-3)Gal(b1-4)GlcNAc(b1-3)Gal(b1-4)GlcNAc(b1-2)Man(a1-3)[Gal(b1-4)GlcNAc(b1-3)Gal(b1-4)GlcNAc(b1-3)Gal(b1-4)GlcNAc(b1-3)Gal(b1-4)GlcNAc(b1-3)Gal(b1-4)GlcNAc(b1-3)Gal(b1-4)GlcNAc(b1-2)Man(a1-6)]Man(b1-4)GlcNAc(b1-4)GlcNAc
# Procedure, shortened: as §1
# [14] = molecular target: Gal(b1-4)GlcNAc(b1-3)Gal(b1-4)GlcNAc(b1-3)GalNAc
# Procedure, shortened: as §1
# [15] = molecular target: Gal(b1-4)GlcNAc(b1-3)Gal(b1-4)GlcNAc(b1-3)[Gal(b1-4)GlcNAc(b1-3)Gal(b1-4)GlcNAc(b1-6)]GalNAc
# Procedure, shortened: as §1
# [16] = molecular target: Gal(b1-4)GlcNAc(b1-3)Gal(b1-4)GlcNAc(b1-6)[Gal(b1-3)]GalNAc
# Procedure, shortened: as §1
# [17] = molecular target: Gal(b1-4)GlcNAc(b1-3)Gal(b1-4)[Fuc(a1-3)]GlcNAc(b1-3)Gal(b1-4)[Fuc(a1-3)]GlcNAc
# Procedure, shortened: as §1
# [18] = molecular target: Gal(b1-4)GlcNAc(b1-3)GalNAc
# Procedure, shortened: as §1
binder,measurement,setting,value
B1,glycan array binding signal (z-score),[1],1.84
same,glycan array binding signal (z-score),[2],5.95
same,glycan array binding signal (z-score),[3],0.625
same,glycan array binding signal (z-score),[4],0.782
same,glycan array binding signal (z-score),[5],1.81
same,glycan array binding signal (z-score),[6],0.734
same,glycan array binding signal (z-score),[7],0.871
same,glycan array binding signal (z-score),[8],0.632
same,glycan array binding signal (z-score),[9],0.907
same,glycan array binding signal (z-score),[10],0.109
same,glycan array binding signal (z-score),[11],1.5
same,glycan array binding signal (z-score),[12],0.801
same,glycan array binding signal (z-score),[13],4.05
same,glycan array binding signal (z-score),[14],2.44
same,glycan array binding signal (z-score),[15],0.456
same,glycan array binding signal (z-score),[16],-0.295
same,glycan array binding signal (z-score),[17],-0.468
same,glycan array binding signal (z-score),[18],-0.34
